Data from PubChem BioAssay AID1347071 (National Center for Advancing Translational Sciences (NCATS), 2019).
The whole screen tested about 410,000 compounds, of which about 260 (0.063%) were called active. Inconclusive results, whose numbers are uncertain, are shown with a selection of clear calls. The call rests on the fitted dose curve; in most records, active means well fitted activation curve with a large enough effect; inconclusive means small, poorly fitted or top-dose-only effect; inactive means no such curve, though single readings can be large or run the other way. Potencies of inconclusive entries are left out as doubtful fits.

Experiment: qHTS for compounds that reverse cellular toxicity of Amyloid beta (A-beta) peptide in yeast: Primary Screen; further: nearly all actives have a fitted effect of over 55% in size
Conditions: yeast expressing A-beta42, growth rescue, OD600, 48 h; growth rescue: at 46.1 µM (top of the series), 0% DMSO, 100% iron-clioquinol control
Method in brief: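 Yeast A-beta toxicity model in growth medium with pinned compounds, 48 h at 30 C; growth read as absorbance at 600 nm. Normalized to FeCl3/clioquinol equimolar mix (positive) and DMSO (negative).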
Potency means the concentration at half of the fitted maximal effect; tags describe the fitted curve by direction and shape.

Compound | Potency | growth rescue
COc1ccc(-c2csc(Nc3ccc(C)cn3)n2)cc1OC | inconclusive [activator, partial curve, poor fit] | –
S=C(NCCc1ccccc1)Nc1ccccc1 | inconclusive [activator, single point] | –
COc1cc(C(=O)N2C(=O)c3cccc(N)c3C2=O)cc(OC)c1OC | inconclusive [activator, partial curve, poor fit] | –
O=C(CSc1nc2ccccc2n1CCc1ccccc1)c1ccc(O)c(O)c1 | inconclusive [activator, single point] | –
O=C(CN1CCC(NC(=O)Nc2ccccc2)CC1)Nc1cccc([N+](=O)[O-])c1 | inconclusive [activator, single point] | –
Cc1ccc(C(C)C)cc1OCC(=O)Nc1ccc(-n2cnnn2)cc1 | inconclusive [activator, partial curve, poor fit] | –
Cc1cc(-c2ccc(C(C)C)c(S(=O)(=O)N3CCC(C)CC3)c2)on1 | – | inconclusive: -46.5% [activator]
CCOc1cccc(NC(=O)C2CC(=O)N(C)C(=Nc3ccc(F)cc3)S2)c1 (stereo not drawn) | active: 15.8 µM | –
O=C(Nc1nnc(C2CCCC2)s1)C1CCC1 | inconclusive [activator, single point] | –
COc1ccc(NC(=O)Cn2c(=O)n(Cc3ccccc3Cl)c(=O)c3cc(OC)c(OC)cc32)cc1OC | – | inactive: -16%
CC1=NN(C(=O)COc2ccc(C)c(C)c2)C(O)(c2ccc(Cl)cc2)C1 (stereo not drawn) | inconclusive [activator, partial curve, poor fit] | –
Cc1cc2nc(SCCOC(=O)Nc3ccccc3)nc(C)c2cc1C | inconclusive [activator, single point] | –
O=C1NC(=O)C2(COC3(CCCC3)OC2)S1 | inconclusive [activator, partial curve] | –
CCCC1NC(=O)c2cccnc2-n2c1nc1ccc(OC)cc1c2=O (stereo not drawn) | – | inactive: 11.2%
COc1c(C)cc(Br)cc1C(=O)Nc1cccc(-c2nc3ncccc3o2)c1 | – | inactive: 5.42%
CC(=O)c1cccc(NC(=S)NCCC2=CCCCC2)c1 | inconclusive [activator, full curve, poor fit] | –
COc1cc(OC)cc(C2=Cc3ccc(OC)cc3C(CC(C)=O)N2c2ccc(C#CCCO)cc2)c1 (stereo not drawn) | inconclusive [activator, partial curve] | –
C[C@H](NC(=O)Cc1cccc2ccccc12)C(=O)N1CCOCC1 | inconclusive [activator, full curve] | –
COc1cc(C(=O)Nc2sc(C(=O)N3CCOCC3)c(C)c2C#N)cc(OC)c1OC | – | inactive: -6.37%
O=C(COC(=O)c1ccccc1Br)Nc1ccc2[nH]c(=O)[nH]c2c1 | – | inactive: -7.81%
COc1ccc(NC(=O)c2ccc(COCC(F)(F)C(F)F)cc2)cc1OC | inconclusive [activator, partial curve, poor fit] | –
Cc1ccc(C(=O)Nc2ccc(Br)cc2)cc1S(=O)(=O)NCc1ccccc1 | – | inactive: -0.756%

Compound | Potency | growth rescue
CCOC(=O)[C@]12CCC=C1N(Cc1ccccc1)C(=O)[C@H](CC(=O)NCC1CCCCC1)C2 | – | inactive: 1.7%
CC(Cl)C(=O)NNc1cccc(Cl)n1 (stereo not drawn) | inconclusive [activator, partial curve, poor fit] | –
Cc1ccc(NC(=S)/N=C(\N)Nc2nc(C)c3cc(C)ccc3n2)c(C)c1 | inconclusive [activator, partial curve, poor fit] | –
CCc1cc(Br)ccc1NC(=S)NCCc1ccccc1 | inconclusive [activator, partial curve, poor fit] | –
O=C(Nc1ccc(S(=O)(=O)Nc2ccccc2)cc1)C1COc2ccccc2O1 (stereo not drawn) | inconclusive [activator, single point] | –
CN(C)c1cccc(NC(=O)NC2(C)CCS(=O)(=O)C2)c1 (stereo not drawn) | inconclusive [activator, single point] | –
CCCC(=O)N(CCc1ccccc1)Cc1nc2ccccc2c(=O)[nH]1 | inconclusive [activator, partial curve, poor fit] | –
O=C(/C=C/c1ccc(F)cc1)NC(=S)NNC(=O)[C@H]1C[C@@H]1c1ccccc1 | inconclusive [activator, partial curve] | –
CCc1nc(Nc2ccccc2)c2nnn(Cc3ccccc3)c2n1 | inconclusive [activator, partial curve, poor fit] | –
Cc1cccc(NC(=S)NNC(=O)c2cc3c(s2)CCC(C)C3)c1C (stereo not drawn) | inconclusive [activator, partial curve] | –
S=C(NCCc1ccccc1)Nc1ccc(N2CCCCC2)cc1 | active: 8.91 µM | –
Cc1ccc(Cl)cc1NS(=O)(=O)c1ccc2oc(=O)c3ncn(C)c3c2c1 | – | inactive: -4.19%
CCOC(=O)C1(CC2CCCCO2)CCN(C(=O)Nc2ccccc2CC)CC1 (stereo not drawn) | inconclusive [activator, partial curve, poor fit] | –
CCn1cc(C(=O)OCC(=O)OC2CC(C)CCC2C(C)C)c(=O)c2ccc(C)nc21 (stereo not drawn) | – | inactive: -26.7%
Cc1ccc(CNC(=O)Cn2cncn2)cc1 | inconclusive [activator, single point] | –
COc1ccccc1CNC(=O)C1CCCN(C(=O)c2cnn(-c3ccc(F)cc3)c2-n2cccc2)C1 (stereo not drawn) | – | inactive: -1.91%
CC1CN(S(=O)(=O)c2ccc(C(=O)Nc3nnc(-c4ccc5c(c4)CCCC5)o3)cc2)CC(C)O1 (stereo not drawn) | – | inactive: -7.58%
CC1Cc2cc(S(=O)(=O)NCCc3ccc(Cl)cc3)ccc2N1C(=O)C1CCC1 (stereo not drawn) | inconclusive [activator, single point] | –
Oc1ccccc1C=NNC(=S)NC1CC2C=CC1C2 (stereo not drawn) | inconclusive [activator, partial curve, poor fit] | –
NS(=O)(=O)c1ccc(N2N=C(c3ccccc3)CC2c2cccc(Cl)c2)cc1 (stereo not drawn) | inconclusive [activator, full curve] | –
COc1cc(NC(=S)NCCN2CCOCC2)cc(OC)c1OC | active: 25.1 µM | –
